In all, about 310,000 compounds went through this assay and about 14,000 (4.5%) showed an effect of 50% or more. Effects have a minus sign here. The list shows a part of the results.
These compounds were tested against human ether-à-go-go-related gene (hERG) potassium channel (human, UniProt Q12809) (assay: primary screen, population patch clamp on CHO cells stably expressing hERG).
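Further: peak tail current of the secondary pulse compared with the same well before compound.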

Chain of human ether-à-go-go-related gene (hERG) potassium channel (Q12809 whole entry, looked up): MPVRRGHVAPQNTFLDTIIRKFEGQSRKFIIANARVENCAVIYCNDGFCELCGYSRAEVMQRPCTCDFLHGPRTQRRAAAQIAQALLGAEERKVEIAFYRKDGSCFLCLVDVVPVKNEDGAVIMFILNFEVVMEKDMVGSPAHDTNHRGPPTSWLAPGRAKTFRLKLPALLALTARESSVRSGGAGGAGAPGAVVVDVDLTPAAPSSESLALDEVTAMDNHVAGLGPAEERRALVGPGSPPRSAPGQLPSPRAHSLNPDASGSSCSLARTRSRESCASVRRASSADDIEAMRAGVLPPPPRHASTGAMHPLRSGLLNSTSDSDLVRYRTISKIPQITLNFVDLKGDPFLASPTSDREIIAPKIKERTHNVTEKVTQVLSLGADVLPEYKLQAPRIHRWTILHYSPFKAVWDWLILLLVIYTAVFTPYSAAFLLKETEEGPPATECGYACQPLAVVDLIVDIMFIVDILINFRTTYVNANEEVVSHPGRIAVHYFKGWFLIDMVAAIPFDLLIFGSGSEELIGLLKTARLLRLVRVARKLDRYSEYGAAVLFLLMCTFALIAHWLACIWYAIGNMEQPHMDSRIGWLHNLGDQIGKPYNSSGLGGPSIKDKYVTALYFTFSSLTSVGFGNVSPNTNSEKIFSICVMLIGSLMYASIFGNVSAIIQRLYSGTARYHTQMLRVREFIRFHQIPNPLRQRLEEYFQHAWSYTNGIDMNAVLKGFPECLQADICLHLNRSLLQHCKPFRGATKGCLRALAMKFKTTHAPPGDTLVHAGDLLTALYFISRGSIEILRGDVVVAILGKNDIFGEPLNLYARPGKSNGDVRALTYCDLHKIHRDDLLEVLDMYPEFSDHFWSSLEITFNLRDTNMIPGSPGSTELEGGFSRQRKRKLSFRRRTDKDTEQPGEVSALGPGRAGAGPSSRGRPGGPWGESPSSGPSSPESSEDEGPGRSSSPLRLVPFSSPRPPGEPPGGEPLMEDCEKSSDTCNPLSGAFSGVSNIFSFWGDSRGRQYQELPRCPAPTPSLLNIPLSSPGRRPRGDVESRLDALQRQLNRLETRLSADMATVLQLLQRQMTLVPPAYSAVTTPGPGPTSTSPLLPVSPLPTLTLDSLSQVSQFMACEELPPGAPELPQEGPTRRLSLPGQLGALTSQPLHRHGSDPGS

| Compound | hERG current change (%, negative = inhibition) at 10uM |
| --- | --- |
| CN(C)S(=O)(=O)NCc1ccc2c(c1)OCO2 | 14.3% |
| COC(=O)N/N=C/c1ccc(-c2ccc(C)c(Cl)c2)o1 | -6.4% |
| Cc1cc(NC(=O)c2cc3ncc(Br)cn3n2)no1 | 20.3% |
| CC(=O)c1cccc(NC(=O)N2CCCC2C(=O)NCCc2ccccc2)c1 (centres unmarked) | -7.07% |
| Cc1ccc(C2(O)CN(c3ccccc3)C3=[N+]2CCS3)cc1.[Br-] (centres unmarked) | -32.6% |
| Cc1cccn2cc(CNS(=O)(=O)c3ccc4ccccc4c3)nc12 | -16.1% |
| C=CCn1c(C)cc(C(=O)Cn2c(C(C)O)nc3ccccc32)c1C (centres unmarked) | 12.4% |
| CC(C)COP(=O)(CNC(=O)CN1C(=O)c2ccccc2S1(=O)=O)OCC(C)C | 16.7% |
| CCCP(=O)(CC(=O)N(CC)CC)c1ccccc1 (centres unmarked) | 12% |
| Cc1ccc(/C=C2\SC(=S)N(CCCC(=O)NC3CCCC3)C2=O)cc1 | 1.4% |
| CC(C)(C)Nc1nc(SCC(=O)Nc2ccccc2Cl)nc(N2CCOCC2)n1 | -3.42% |
| Cc1cc(OCC(O)CNC(C)(C)C)ccc1Cl.Cl (centres unmarked) | -4.91% |
| O=C1NC(=O)N(Cc2ccco2)C(=O)/C1=C\c1cccn1CCOc1ccccc1 | 9.91% |
| CC(C)NS(=O)(=O)c1ccc(Oc2ncc(C(F)(F)F)cc2Cl)cc1 | 16.4% |
| Cc1cc(Nc2ccc3c(c2)OCCO3)c2cc(Cl)ccc2n1.Cl | -52.6% |
| COc1ccc(S(=O)(=O)N2CCN(C(=O)c3ccc(C)o3)CC2)cc1 | -5.16% |
| Cc1ccc(Nc2nc(N/N=C\c3ccc4c(c3)OCO4)nc(N3CCOCC3)n2)cc1 | -6.98% |
| CCN(Cc1ccccc1)c1ccc(/C=N/N=C(N)N)cc1 | -25% |
| CCOc1cccc(/C=N/NC(=O)c2cc(C3CC3)[nH]n2)c1O | 5.91% |
| O=C(NNC1CC(=O)N(c2ccc(Br)cc2)C1=O)c1cccnc1 (centres unmarked) | 5.53% |
| CC(C)CC(=O)N1CCN(Cc2ccc(C(F)(F)F)cc2)CC1 | -1.3% |
| CCCNC(=O)c1ccccc1NC(=O)Nc1ccccc1C | 8.18% |
| N#CC1=C(N)NC(SCC(=O)Nc2ccc(Br)cc2)=C(C#N)C12CCCCC2 | 13.4% |

| Compound | hERG current change (%, negative = inhibition) at 10uM |
| --- | --- |
| CC(C)/C=N/NC(=O)c1ccc(Cl)cc1 | 13.4% |
| Cc1nn(-c2ccccc2)c(C)c1NC(=O)COC(=O)/C=C/c1ccccc1 | 4.01% |
| Cc1ccc(SCC(=O)Nc2ccc(-c3nc4ccccc4[nH]3)cc2)cc1 | 5.17% |
| COc1ccccc1N1CCN(CCN2C(=O)C3CCCCN3C2=O)CC1 (centres unmarked) | 4.39% |
| CC1CCCN(CC(O)COC(c2ccccc2)c2ccccc2)C1 (centres unmarked) | -65% |
| CCc1ccc(-c2cn3nc(-c4ccccc4)cnc3n2)cc1 | -0.423% |
| Cc1nnsc1SC(C)C(=O)O (centres unmarked) | 9.82% |
| Cc1ccc(-c2cn3cccnc3n2)cc1NC(=O)c1ccc(Br)o1 | 0.84% |
| Cc1ccc(F)cc1NC(=O)CCNC(=O)c1ccc([N+](=O)[O-])cc1 | -2.22% |
| C/C(=N/NS(=O)(=O)c1ccc(C)cc1)c1ccc(NC(=O)C(F)(F)F)cc1 | 10.7% |
| CCOC(=O)C(=O)N1CCC(C(=O)OCC)CC1 | 1.19% |
| CCOC(=O)C(=O)Nc1ccccc1C(=O)Nc1ccc(OC)cc1 | 8.93% |
| CCC(=O)N1CCc2cc(S(=O)(=O)NCCC(=O)N3CCN(c4ccccn4)CC3)ccc21 | -4.4% |
| CSc1cccc(NC(=S)NC(=O)CCc2ccccc2)c1 | 18.8% |
| O=C(Nc1cnccn1)Nc1cccc(Cl)c1Cl | 20.1% |
| COc1ccc(C)cc1-n1nnnc1SCC(=O)N1CCC(C(=O)Nc2nccs2)CC1 | -44.6% |
| Nc1ccn(CC(=O)NCc2ccc3c(c2)OCO3)c(=O)n1 | 7.13% |
| O=C(CSc1nnc(SCc2ccccc2)s1)N/N=C/C=C/c1ccco1 | -14% |
| O=C(OC1CCOC1=O)C1CCN(S(=O)(=O)c2ccc(Cl)c(C(F)(F)F)c2)CC1 (centres unmarked) | 5.27% |
| Cc1ccc(C(=O)NCC(=O)NC2CCC(C)CC2)s1 (centres unmarked) | 2.47% |
| O=C(NCC(=O)N(Cc1ccco1)C(C(=O)NC1CCCCC1)c1cccnc1)c1cccs1 (centres unmarked) | -3.27% |
| COc1ccc(Cl)cc1NC(=O)CSc1nnc(CNC(=O)c2ccco2)o1 | -28.7% |
| CCN(CC)c1ccc(/C=N/NC(=O)CNC(=O)c2ccccn2)cc1 | -28.6% |

| Compound | hERG current change (%, negative = inhibition) at 10uM |
| --- | --- |
| Cn1nnc(NC(=S)NC(=O)c2ccco2)n1 | 13.1% |
| COc1ccc(C(=O)OCC(=O)NCCCc2ccccc2)cc1OC | 12.8% |
| Cn1cc(S(=O)(=O)N2CCCC2)cc1C(=O)NCc1ccc(Cl)cc1 | 2.02% |
| NS(=O)(=O)c1ccc(CNC(=O)CNC(=O)c2ccc(Br)o2)cc1 | 23.2% |
| CC(NC(=O)c1ccc(C(F)(F)F)cc1)C(c1ccccc1)N1CCOCC1 (centres unmarked) | -12.5% |
| O=C(N/C(=C/c1ccco1)C(=O)N1CCCC1)c1cccs1 | -0.326% |
| CCc1cccc(NC(=O)CNC(=O)N2CC(=O)Nc3ccccc32)c1 | -8.55% |
| Cc1cc(C(=O)O[C@H]2[C@H](C)NS(=O)(=O)[C@H]3C[C@@H]4C=C[C@]23O4)cc([N+](=O)[O-])c1 | 4.52% |
| COc1ccc2c(c1)N(C(=O)CN1C(=O)C3CCCCC3C1=O)C(C)(C)C=C2C (centres unmarked) | -4.67% |
| O=C(Cn1ncc2c(=O)oc3ccccc3c21)NCCC1=CCCCC1 | -3.92% |
| O=C(CCc1ccc(S(=O)(=O)N2CCOCC2)cc1)NCCCN1CCCC1=O | 5.62% |
| Cc1[nH][nH]c(=O)c1C(c1ccccc1[N+](=O)[O-])C(C#N)C#N (centres unmarked) | 14.5% |
| CC(C)Cn1c(SCC(=O)NCCCN2CCCC2=O)nc2ccccc21 | 17.5% |
| CN(C)c1ccc(/C=N/NC(=O)c2nnn(-c3nonc3N)c2COc2ccc(F)cc2)cc1 | 11% |
| COc1ccccc1C(C)NC(=O)c1cc(S(=O)(=O)N2CCCCC2)ccc1C (centres unmarked) | -2.32% |
| CCSc1nnc(SCC(=O)NNC(=O)c2ccccc2F)s1 | -4.1% |
| CSc1ccccc1NC(=O)CSCc1ccccc1Br | 4.94% |
| O=C(NC(=O)c1ccccc1)C1=C(N2CCCC2)COC1=O | 2.32% |
| COC(=O)c1ccc(S(=O)(=O)NNC(=O)COc2ccc(C)cc2)cc1 | 10.4% |
| O=C(COC(=O)c1c(F)cccc1Cl)NC(=O)Nc1ccc2c(c1)OCCO2 | 12.4% |
| Cc1onc(-c2ccccc2Cl)c1C(=O)NCC1CCCO1 (centres unmarked) | -0.317% |
| COc1ccc(N2C(=O)CSC2c2cccs2)cc1 (centres unmarked) | -3.37% |
| Cc1cc(C)n(CC2CC(=O)N(c3ccc(C)c(Cl)c3)C2=O)n1 (centres unmarked) | -3.7% |

| Compound | hERG current change (%, negative = inhibition) at 10uM |
| --- | --- |
| NS(=O)(=O)c1ccc(CCNC(=O)C2CCN(S(=O)(=O)c3ccccc3)CC2)cc1 | 14.4% |
| CC1CCCC(C)N1C(=O)CSc1nccc(=O)[nH]1 (centres unmarked) | -0.231% |
| Cc1cc2c(cc1S(=O)(=O)N1CCN(c3ccccc3)CC1)OCCN2C | -32.7% |
| CCN(CC)S(=O)(=O)c1ccc(NN=C2CCN(C(C)C)CC2)c([N+](=O)[O-])c1 | -38.3% |
| Cc1ccc(S(=O)(=O)Nc2cnn(-c3ccccc3)c(=O)c2Cl)cc1 | 18.6% |
| CCN1C(=O)NC(=O)/C(=C\c2cn(CC(=O)N3CCCC3)c3ccccc23)C1=O | -0.147% |
| CCOc1ccccc1NS(=O)(=O)c1ccc2c(c1)n(C)c(=O)c(=O)n2C | -44.8% |
| C1CCCN(c2nc3nonc3nc2N2CCCCCC2)CC1 | 8.53% |
| O=c1[nH]cc(F)c(=O)[nH]1 | 6.92% |
| COC(=O)c1cccc(NS(=O)(=O)c2ccc(OC)c(C(=O)N3CCOCC3)c2)c1C | 16.9% |
| CC(=O)c1cccc(NC(=O)Cc2ccc3c(c2)CCCC3)c1 | 18.8% |
| CC(OC(=O)Cn1cnc2ccccc2c1=O)C(=O)NCc1ccccc1 (centres unmarked) | 10.8% |
| Cc1cc(OCCN2CCC(Cc3ccccc3)CC2)ccc1[N+](=O)[O-].O=C(O)C(=O)O | -79.1% |
| O=C(Nc1ccc(F)cc1F)c1cc(Cl)sc1Cl | 3.22% |
| CC1CCCCC1NS(=O)(=O)CCNC(=O)c1ccc2c(c1)OCO2 (centres unmarked) | 8.62% |
| CCc1ccc(C(=O)N/N=C(\C)c2cccnc2)s1 | 1.05% |
| CC(=O)NCCOc1cccc2ccccc12 | 2% |
| O=C(CNS(=O)(=O)c1ccc(F)c(Cl)c1)N1CCCCCC1 | -0.168% |
| C#CCOCCOCCOCCNc1nc(N2CCOCC2)nc(N2CCN(C(=O)[C@H](C)n3cc(CCC[NH+]=C(N)N)nn3)CC2)n1.[Cl-] | 4.73% |
| CCCN1CCc2c(sc(NC(=O)C3CCN(S(=O)(=O)c4cccs4)CC3)c2C(N)=O)C1.Cl | -61.3% |

— article PMC4336329 (PLoS ONE, 2015)
